The subject of series [1] is mcl-1−/− MEF Vector Control. Kind of series: CellTiter-Glo cell viability, Mcl-1-/- MEF empty vector control, 96 hours. It counts as cell-based, mouse. Here is the method: Retroviral supernatants were produced through transfection of the GP2-293 packaging cell line (Clontech) with the retroviral construct pLVC-IRES-Hygro (Clontech) containing huEGFR sequence or the empty vector utilizing FuGENE 6 transfection reagent (Roche Molecular Biochemicals, Mannheim, Germany). After 48 hours of culture, virus-containing supernatant was harvested and applied to mcl-1^−/− MEFs in 75 cm^2 culture flasks (0.5×10^6 per flask) for a further 48 hours in the presence of polybrene (8 μg/ml; Sigma). Mcl-1^−/− MEFs were washed and selected after 3 days with 250 μg/mL hygromycin B (Invitrogen) in the full complement of media. The expression of huEGFR was confirmed by flow cytometry and compared to the parental cell line or those transfected with the empty vector.
Mcl-1^−/− MEFs expressing huEGFR or the pLVX empty vector (Vct Ctrl) were treated with AB033-targeted Bcl-xL-ADCs, AB033 alone or MSL109-targeted Bcl-xL-ADCs for 96 hours in DMEM containing 10% FBS. For the assay, the cells were plated at 250 cells per well in 384-well tissue culture plates (Corning, Corning, NY) in a total volume of 25 μL of assay media (DMEM and 10% HI FBS). The plated cells were treated with a 4-fold serial dilution of the Antibody Drug Conjugates of interest from either 1 μM or 0.5 μM to either 1 50 μM or 25 μM, respectively. Each concentration was tested in at least three replicates for the Mcl-1^−/− MEF huEGFR cell line and for the Mcl-1^−/− MEF vector cell line. The fraction of viable cells following 96 hours of Antibody Drug Conjugate treatment at 37° C. and 5% CO2 was determined using the CellTiter-Glo Luminescent Cell Viability Assay according to the manufacturer's recommendations (Promega Corp., Madison, WI). The plates were read in a Perkin Elmer Envision using a Luminescence protocol with 0.1 see integration time. The replicate values for each dilution point were averaged and the EC50 values for the Antibody Drug Conjugates were generated by fitting the data with GraphPad Prism 5 (GraphPad Software, Inc.) to a sigmoidal curve model using linear regression, Y=((Bottom−Top)/(1+((x/K)^n)))+Top, where Y is the measured response, x is the compound concentration, n is the Hill Slope and K is the EC50 and Bottom and Top are the lower and higher asymptotes respectively. Visual inspection of curves was used to verify curve fit results. Mcl-1^−/− MEFs were obtained from David C. S. Huang of the Walter and Eliza Hall Institute of Medical Research.
For orientation: ATP-based viability assays read luminescence as a measure of living cells.

For the next series, the system named is NCI-H1650 xenograft. Description: NCI-H1650 flank xenograft model of NSCLC, tumor growth inhibition and delay. It counts as in vivo, SCID/bg mice. As to conditions: Table 10; 10 mg/kg/day, QD × 1/IP.
Series [2] in a line: Size exclusion chromatography (SEC), % aggregate fraction of ADCs. Conditions: Shodex KW802.5, absorbance at 280 nm. It counts as physicochemical. Here is the method: Size exclusion chromatography (SEC) was performed using a Shodex KW802.5 column in 0.2M potassium phosphate pH 6.2 with 0.25 mM potassium chloride and 15% isopropyl alcohol at a flow rate of 0.75 ml/min. The peak area absorbance at 280 nm was determined for each of the high molecular weight and monomeric eluents by integration of the area under the curve. The % aggregate fraction of the conjugate sample was determined by dividing the peak area absorbance at 280 nm for the high molecular weight eluent by the sum of the peak area absorbances at 280 nM of the high molecular weight and monomeric eluents multiplied by 100%.
The average DAR values were determined using the above LC-MS method. The % aggregate fraction for the ADCs was also determined using the SEC method described in Example 2.2. The DAR and % aggregation are both reported below in Table 7.

The record followed here is patent US20240199745A1, “ANTI-EGFR ANTIBODY DRUG CONJUGATES” (priority 2016, published 2024).

B1: AbG-TX (conjugate)
heavy: EVQLQESGPGLVKPSQTLSLTCTVSGYSISNDFAWNWIRQLPGKGLEWMGYISYKGNTRYQPSLKSRITISRDTSKNQFFLKLNSVTAADTATYYCVTASRGLPYWGQGTLVTVSS[human IgG1 constant region left out here]
light: DIQMTQSPSSMSVSVGDRVTITCHSSQDITYNIGWLQQKPGKSFKGLIYHGANLDDGVPSRFSGSGSGTDYTLTISSLQPEDFATYYCVQYDEFPWTFGGGTKLEIKRTVAAPSVFIFPPSDEQLKSGTASVVCLLNNFYPREAKVQWKVDNALQSGNSQESVTEQDSKDSTYSLSSTLTLSKADYEKHKVYACEVTHQGLSSPVTKSFNRGEC
In series [1], B1 showed an EC50 of 368 nM. In the series on NCI-H1650 xenograft, this molecule showed a TGImax of 88%. The “% Agg (by SEC)” value in series [2] is 1.6%.

B2: AbG-XW (conjugate)
heavy: EVQLQESGPGLVKPSQTLSLTCTVSGYSISNDFAWNWIRQLPGKGLEWMGYISYKGNTRYQPSLKSRITISRDTSKNQFFLKLNSVTAADTATYYCVTASRGLPYWGQGTLVTVSS[human IgG1 constant region left out here]
light: DIQMTQSPSSMSVSVGDRVTITCHSSQDITYNIGWLQQKPGKSFKGLIYHGANLDDGVPSRFSGSGSGTDYTLTISSLQPEDFATYYCVQYDEFPWTFGGGTKLEIKRTVAAPSVFIFPPSDEQLKSGTASVVCLLNNFYPREAKVQWKVDNALQSGNSQESVTEQDSKDSTYSLSSTLTLSKADYEKHKVYACEVTHQGLSSPVTKSFNRGEC
As to B2, in series [1], a half-maximal response (EC50) required 246 nM. The TGImax in the series on NCI-H1650 xenograft is 76%. For the same molecule, in series [2], the “% Agg (by SEC)” value was determined as 5.9%.

B3: AbG-AAA (conjugate)
heavy: EVQLQESGPGLVKPSQTLSLTCTVSGYSISNDFAWNWIRQLPGKGLEWMGYISYKGNTRYQPSLKSRITISRDTSKNQFFLKLNSVTAADTATYYCVTASRGLPYWGQGTLVTVSS[human IgG1 constant region left out here]
light: DIQMTQSPSSMSVSVGDRVTITCHSSQDITYNIGWLQQKPGKSFKGLIYHGANLDDGVPSRFSGSGSGTDYTLTISSLQPEDFATYYCVQYDEFPWTFGGGTKLEIKRTVAAPSVFIFPPSDEQLKSGTASVVCLLNNFYPREAKVQWKVDNALQSGNSQESVTEQDSKDSTYSLSSTLTLSKADYEKHKVYACEVTHQGLSSPVTKSFNRGEC
Regarding B3, the TGImax with NCI-H1650 xenograft came out at 76%. For the same molecule, the “% Agg (by SEC)” value in series [2] is 17.5%.

Broadly, the EC50 is the midpoint of the concentration-response curve.
